Source: article PMC4336329 (PLoS ONE, 2015)
The whole screen tested about 310,000 compounds, of which about 2,200 (0.71%) showed an effect of 50% or more. The effect is printed as a negative number. Some of the results follow.

molecular target: human ether-à-go-go-related gene (hERG) potassium channel (human, UniProt Q12809); assay: primary screen, population patch clamp on CHO cells stably expressing hERG
Sequence (Q12809 whole entry, looked up): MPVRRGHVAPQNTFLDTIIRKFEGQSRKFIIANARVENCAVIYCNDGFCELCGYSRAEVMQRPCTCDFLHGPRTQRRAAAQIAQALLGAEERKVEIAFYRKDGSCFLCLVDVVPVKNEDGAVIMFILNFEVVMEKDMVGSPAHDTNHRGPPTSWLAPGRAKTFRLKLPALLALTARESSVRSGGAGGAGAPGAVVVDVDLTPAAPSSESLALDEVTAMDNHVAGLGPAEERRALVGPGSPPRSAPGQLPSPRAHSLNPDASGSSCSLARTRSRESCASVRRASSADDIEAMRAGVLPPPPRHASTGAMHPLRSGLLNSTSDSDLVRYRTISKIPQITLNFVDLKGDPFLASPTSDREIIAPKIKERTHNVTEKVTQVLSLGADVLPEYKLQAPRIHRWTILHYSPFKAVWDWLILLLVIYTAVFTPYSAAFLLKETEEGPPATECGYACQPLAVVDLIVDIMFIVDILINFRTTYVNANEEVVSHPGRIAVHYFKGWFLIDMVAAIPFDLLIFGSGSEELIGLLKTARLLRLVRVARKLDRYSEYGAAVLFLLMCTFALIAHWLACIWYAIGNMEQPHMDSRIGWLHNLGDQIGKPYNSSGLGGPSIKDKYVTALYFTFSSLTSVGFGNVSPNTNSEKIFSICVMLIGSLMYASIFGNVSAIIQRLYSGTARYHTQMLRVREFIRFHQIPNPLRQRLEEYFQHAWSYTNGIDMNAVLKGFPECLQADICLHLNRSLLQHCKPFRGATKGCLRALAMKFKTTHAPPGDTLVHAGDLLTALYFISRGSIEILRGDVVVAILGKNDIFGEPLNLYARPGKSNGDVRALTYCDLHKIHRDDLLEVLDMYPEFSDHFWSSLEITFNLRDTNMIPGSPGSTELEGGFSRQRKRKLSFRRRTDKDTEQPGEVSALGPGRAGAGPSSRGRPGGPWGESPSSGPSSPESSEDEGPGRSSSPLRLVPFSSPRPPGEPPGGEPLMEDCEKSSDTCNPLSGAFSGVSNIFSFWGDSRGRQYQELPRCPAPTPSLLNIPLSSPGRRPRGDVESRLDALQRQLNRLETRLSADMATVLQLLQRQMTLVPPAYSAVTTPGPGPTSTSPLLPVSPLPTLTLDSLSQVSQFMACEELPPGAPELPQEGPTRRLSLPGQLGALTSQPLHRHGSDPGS

| SMILES | hERG current change (%, negative = inhibition) at 1uM |
| --- | --- |
| CC(=O)C(C(C)=O)c1c(Cl)c(O)c(O)c2c(C(=O)c3ccccc3)coc12 | 7.84% |
| O=C(/C=C/c1ccco1)N/C(=C\c1ccco1)C(=O)NCCc1nc2ccccc2[nH]1 | 10.4% |
| Cc1ccnc(NC(=O)c2ccc([N+](=O)[O-])s2)c1 | -0.627% |
| CC(C)CCNC1=CC(=O)CC(c2ccccc2)C1 (stereo not drawn) | -0.257% |
| COc1ccc(CNS(=O)(=O)c2c(C(=O)N3CCCCCC3)c(C)n(C)c2C)cc1 | 10.5% |
| Cc1ccc(Oc2ccc(OCC(=O)NC3CCS(=O)(=O)C3)cc2)cc1 (stereo not drawn) | 9.74% |
| Cc1ccc2c(c1)N(S(=O)(=O)c1cc(-c3cc(C)no3)ccc1C)CCO2 | 11.2% |
| CC(/C=C(\C)Nc1ccccc1)=[NH+]c1ccccc1.[O-][Cl+3]([O-])([O-])[O-] | 24.9% |
| O=S(=O)(Nc1ccccc1)c1ccc2c(c1)CCO2 | 1.89% |
| O=c1[nH]c(=O)n(Cc2ccccc2)c(O)c1C=NCCN1CCNCC1 | 13.5% |
| Cc1cccc(N(C(=O)CNC(=O)c2ccco2)C(C(=O)NC2CCCC2)c2ccncc2)c1 (stereo not drawn) | 16.4% |
| CN1CCN(c2ccc(NC(=O)CSc3nnnn3-c3ccccc3Cl)cc2)CC1 | -8.64% |
| COc1ccc(NC(=O)c2cc(-c3ccc(C)cc3)on2)cc1 | 12.8% |
| COCCNC(=O)C(c1ccc(C)cc1)N(C(=O)CCC(=O)Nc1ccccn1)c1ccc(C)cc1 (stereo not drawn) | 11.2% |
| CC(C)(C)OC(=O)N1CCC[C@H]1c1nnc(SCc2ccccc2F)o1 | -0.443% |
| Cc1cccc(C(=O)N[C@H](C(=O)Nc2nnc(C3CC3)s2)C(C)C)c1 | 2.92% |
| CCc1noc(C)c1C(=O)N1CC(C)SC1=Nc1ccc(Cl)cc1 (stereo not drawn) | -1.52% |
| N#C/C(C(=O)N1CCCCC1)=C1\Nc2ccccc2S1 | 3.99% |
| CCCc1nc2oc3c(NCc4ccccn4)ncnc3c2c2c1COC(C)(C)C2 | -10.8% |
| O=C1NCCCC2c3c(cc(Br)c(O)c3Br)OC12N1CCCCC1 (stereo not drawn) | 9.15% |
| CC(O)[C@H]1CNCCN1CCc1cccc(F)c1 (stereo partly drawn) | 14.4% |
| CCc1cccc(NC(=O)C2CCCN(c3cnccn3)C2)c1 (stereo not drawn) | 8.24% |

| SMILES | hERG current change (%, negative = inhibition) at 1uM |
| --- | --- |
| O=C(Nc1ccccc1)N1C2CCC1CC(O)(c1cccnc1)C2 (stereo not drawn) | 13.4% |
| Cc1cccn2c(=O)c(C=NCc3ccco3)c(Nc3ccc(SC(F)F)cc3)nc12 | -2.54% |
| Cc1ccc(-n2nc3c(c2NC(=O)c2ccc(S(=O)(=O)N4CCOCC4)cc2)CSC3)c(C)c1 | 1.39% |
| CC(C)C(=O)Nc1nnc(CCc2ccccc2)s1 | 10.3% |
| Cc1ccc(CCNC(=O)C2CCC(=O)N(CC3CCCCC3)C2)cc1 (stereo not drawn) | -4.63% |
| COc1ccc(C(=O)CCc2ccccc2)cc1 | 11.7% |
| CN(C)S(=O)(=O)c1cccc(-c2nnc(SCC(=O)NCCCCCC(=O)O)n2-c2ccc(F)cc2)c1 | 19.4% |
| Cn1cccc1/C=C1/C(=O)NC(=O)N(C(C)(C)C)C1=O | 8.05% |
| Cc1cc(C)c(NC(=O)CSc2nnc(SCC(=O)Nc3c(C)cc(C)cc3C)n2N)c(C)c1 | 13.9% |
| O=C(Nc1ccc(N2CCN(C(=O)c3ccco3)CC2)c(Cl)c1)c1cccnc1 | 9.32% |
| COc1cc(/C=N/Nc2snc(SC)c2C#N)ccc1O | 6.81% |
| CCCCCCCCOC(=O)C[N+](C)(C)C/C=C(/C)Cl.[Br-] | 9.72% |
| COc1ccc2c(c1)C=C(CN1CCN(C(C)C)C(CCO)C1)CO2 (stereo not drawn) | 5.85% |
| Cc1ccc(-c2nnc(Oc3ccc(NC(=O)c4ccccc4)cc3)c3ccccc23)cc1 | 12.5% |
| Cc1nnc(SCC2=C(C(=O)O)N3C(=O)C(NC(=O)COc4ccc(F)cc4)C3SC2)s1 (stereo not drawn) | 18.6% |
| CC(C)c1ccc(NS(=O)(=O)c2cccc3cccnc23)cc1 | 4.57% |
| COC(=O)c1cc(S(=O)(=O)NCC2CCN(CCc3ccc(OC)cc3)CC2)cn1C | -17.5% |
| COc1ccccc1/C=C1\SC(=S)N(CCC(=O)NNC(=O)c2ccccc2O)C1=O | -9.01% |
| CCSc1nnc(-c2c[nH]c3ccccc23)o1 | 6.31% |
| Cc1cccc(Cn2nnc3ccccc32)c1O | 11.6% |
| COCCN1CC(O)=C(c2nc3ccccc3c(=O)[nH]2)C1=N | 16.9% |
| CN(C)c1ccc(C(=O)NCCCSc2ccccc2)cc1 | 1.77% |

| SMILES | hERG current change (%, negative = inhibition) at 1uM |
| --- | --- |
| O=C1CCCCc2sc(Br)c([N+](=O)[O-])c2N1 | 12% |
| CN(C)c1nc(N)nc(CSc2nnnn2-c2cccc3ccccc23)n1 | -3.13% |
| COc1cccc(-n2nnnc2SCC(=O)Nc2ccc(C(C)=O)cc2)c1 | 12.9% |
| Cc1ccc(C)c(OCc2cc(C(=O)NC(C)c3cnn(C)c3)no2)c1 (stereo not drawn) | 16.9% |
| O=[N+]([O-])c1cccc(-c2ccc(CN3CCN(c4ccccc4)CC3)o2)c1 | 12.3% |
| Cc1cccc(Nc2ncnc3onc(-c4ccc(F)cc4)c23)c1C | 10.2% |
| Cc1ccccc1NC(=O)c1ccccc1-c1ccccc1 | 4.81% |
| COCCNC(=O)NC(=O)CN1CCCc2ccccc21 | 5.42% |
| C=CCCN([C@@H](C)C(=O)OC)S(=O)(=O)c1ccccc1Br | 5.26% |
| COc1ccccc1N1CCN(C(=O)CSc2nc(C)c(Cc3ccccc3)c(=O)[nH]2)CC1 | -0.0558% |
| COc1ccc2[nH]cc(CCNC(C)=O)c2c1 | 2.27% |
| CCOC(=O)c1c(NC(=O)COC(=O)c2ccncc2)sc(C)c1C | 3.73% |
| Cc1ccc(NCC(=O)Nc2cccc(S(=O)(=O)N(C)C)c2)cc1S(=O)(=O)N1CCCCCC1 | 6.36% |
| CCOC(=O)c1nnn(-c2nc(OC)nc(N(C)C)n2)c1-c1ccccc1 | 4.98% |
| O=C(C[n+]1cc(-c2ccc(F)cc2)n2c1CCC2)N1c2ccccc2Sc2ccccc21.[Cl-] | 11.1% |
| Cc1cccc(OCC(=O)Nc2cc(S(=O)(=O)N3CCCCC3)ccc2N2CCN(C)CC2)c1 | -15.6% |
| N#Cc1ccccc1Sc1ccccc1C(=O)OCC(=O)N1CCN(C(=O)c2ccco2)CC1 | 11.4% |
| COCCCNC(=O)Cn1c(=O)n(Cc2ccc(F)cc2)c(=O)c2sccc21 | 13.9% |
| CCOC(=O)c1sc(/N=C/c2c(O)n(-c3cccc(C)c3)c(=O)[nH]c2=O)c(C#N)c1C | 11.4% |
| CCOC(=O)CSC1=Nc2ccccc2C2=NC(CC(=O)NCc3ccccc3)C(=O)N12 (stereo not drawn) | -1.65% |
| O=c1cc(CS(=O)(=O)c2ccccc2)nc(-c2ccncc2)[nH]1 | 11.3% |
| CCCCCCn1c(=O)c(C(=O)Nc2ncccc2O)c(O)c2ccccc21 | 5.73% |

| SMILES | hERG current change (%, negative = inhibition) at 1uM |
| --- | --- |
| Cc1cc(C)cc(N2C(=O)CN(Cc3ccccc3)C2=S)c1 | 2.11% |
| O=C(O)CSc1nnc(NC(=O)c2ccc3c(c2)OCO3)s1 | 13.1% |
| COc1ccccc1OCCN(C#N)c1nc(N(C)C)nc(N(C)C)n1 | 17.3% |
| Cc1cccc(OCc2nnc(SCC(=O)N3c4ccccc4CC3C)n2C)c1C (stereo not drawn) | 6.31% |
| Cc1ccc(/C=C(\NC(=O)c2ccc(C)cc2)c2nc(=S)[nH][nH]2)cc1 | 2.34% |
| Cc1ccc(S(=O)(=O)N2CCN(C(=O)C(Cc3ccccc3)NC(=O)c3ccccc3)CC2)cc1 (stereo not drawn) | -5.13% |
| O=C(Cn1c(CO)nc2ccccc21)NCCc1ccccc1 | 3.12% |
| S=C(N/N=C/c1ccccc1Cl)Nc1cccc(Cl)c1Cl | 8.18% |
| CCc1ccccc1NC(=O)C1CCCN1C(=O)Nc1ccc(C)cc1 (stereo not drawn) | 13.3% |
| CCOc1ccc(Nc2cc(C)nc3nc(C)nn23)cc1 | 1.93% |
| Cc1cc(C(=O)COC(=O)c2ccccc2O)c(C)n1CC1CCCO1 (stereo not drawn) | -6.31% |
| O=S(=O)(c1ccc2nc(COc3ccc(Cl)cc3Cl)[nH]c2c1)N1CCOCC1 | 11% |
| CC(CCc1ccco1)NC(=O)c1cc2c(-c3ccccc3F)nn(C)c2s1 (stereo not drawn) | 6.37% |
| C=CCNC(=S)NNC(=O)c1ccc(Br)cc1 | 11.2% |
| COc1ccc(CN(C(=O)c2ccco2)C2CC(C)N(C)CC2C)cc1 (stereo not drawn) | -14.9% |
| O=C(CN1C(=O)NC2(CCCCCCC2)C1=O)NCc1ccccc1Cl | 12.6% |
| Cc1ccc(NC(=O)CSc2ccc3nnc(-c4ccccn4)n3n2)cc1 | 5.84% |
| COc1ccc(C(=O)NC2=NCCS2)c(OC)c1 | 9.73% |
| CC/C(=C/c1sc2ccccc2[n+]1CC)SC.COS(=O)(=O)[O-] | 8.13% |
| O=C(NCc1n[nH]c(=S)n1-c1cccc(C(F)(F)F)c1)c1ccc(S(=O)(=O)N2CCCC2)cc1 | 15.2% |
| Cc1cccc(CCNC(=O)C2CCN(S(=O)(=O)c3ccccc3)CC2)c1 | -2.02% |
